PubChem BioAssay AID686979 (National Center for Advancing Translational Sciences (NCATS), 2013)
Hit rate of the full screen: of about 420,000 compounds, about 50,000 (12%) were called active. This list was built around the results that the source calls inconclusive (neither active nor inactive); the mix of calls is not that of the screen. Calls come from the whole dose curve; as a rule, active = well fitted inhibition curve with a large enough effect; inconclusive = small, poorly fitted or top-dose-only effect; inactive = flat fitted curve, though single readings scatter. Potencies of inconclusive entries are left out as doubtful fits.

Assay: qHTS for Inhibitors of human tyrosyl-DNA phosphodiesterase 1 (TDP1): qHTS in cells in presence of CPT; note: nearly all actives have a fitted effect of over 55% in size
Conditions: chicken DT40 Tdp1-/-;hTDP1 cells + 20 nM CPT, ATP luminescence, 48 h; activity change, negative = growth inhibition: at 46.2 µM (top of the series) unless noted
In short: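 Chicken DT40 Tdp1-/- cells complemented with human TDP1, 400 cells/well, exposed to compounds plus 20 nM camptothecin for at least 48 h at 37 C; viability read as ATP content by CellTiter-Glo luminescence.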
% is set by controls: 0 for no effect and ±100 for the full control effect; potency is the fitted concentration of half-maximal effect; tags give direction and shape of the fitted curve.

SMILES	activity change, negative = growth inhibition	Potency
CC(C)(CN1CCCC1)NC(=O)C1CCC(=O)N(CCCN2CCOCC2)C1 (configuration not stated)	inactive: -1.5%	–
CC(=O)N1CCSc2ccc(S(=O)(=O)Nc3ccc(C)cc3)cc21	–	inconclusive [inhibitor, single point]
COc1cccc(C(C)(O)c2nc(-c3csc4ccccc34)cs2)c1 (configuration not stated)	–	inconclusive [inhibitor, single point]
Oc1ccccc1-c1cnc2cccnn12	–	active: 16.4 µM
CCOCCCn1c(SCC(=O)Nc2ccc(OC)cc2)nc2ccccc2c1=O	–	inconclusive [inhibitor, single point]
CC(=O)Nc1ccc(S(=O)(=O)N2CCN(C(=O)c3ncoc3-c3ccccc3)CC2)cc1	inconclusive: -31.8% [inhibitor]	–
Cc1cccc(NC2=NC(=S)N(c3ccc(C(=O)O)cc3)C23CCCCC3)c1	–	inconclusive [inhibitor, full curve, poor fit]
CC(=O)c1ccc(Nc2nc(C(N)Cc3ccc(C(F)(F)F)cc3)cs2)cc1 (configuration not stated)	–	active: 14.6 µM
Oc1c(N=NC(=S)Nc2ccccc2F)c2ccccc2n1Cc1cccc(Cl)c1	–	active: 6.51 µM
CC(=O)N(c1nc(/C=C\C(=O)O)cs1)c1ccccc1F	inactive: 5.22%	–
CC1CC(C)CN(C(=O)CSc2nnc(-c3ccc(Cl)cc3)o2)C1 (configuration not stated)	–	inconclusive [inhibitor, single point]
COc1ccc([C@H]2CC(=O)C=C(c3ccc(Br)c4ccccc34)C2)cc1	inactive: -4.18%	–
COc1ccc(CN2CCNC(=O)C2CC(=O)NC2Cc3ccccc3C2)c(OC)c1 (configuration not stated)	inactive: -10.7%	–
Cc1cccc(C)c1NC(=O)CN(C)C(=O)CSC(=S)N1CCCC1	inactive: -2.58%	–
CS(=O)(=O)c1ccc(NC(=O)C2CC(=O)N(c3ccc4c(c3)OCCO4)C2)cc1 (configuration not stated)	inactive: -1%	–
C#Cc1ccc(NC(=O)C2(C)CCN2C(=O)C2(c3ccccc3)CC2)cc1 (configuration not stated)	inconclusive: -30.1% [inhibitor]	–
S=C(NCC1CCCO1)Nc1ccc(Cl)cc1 (configuration not stated)	inactive: -13.4%	–
COC(=O)[C@@H]1C[C@H](NC(=O)c2ccccc2C(F)(F)F)CN1Cc1cccc(O)c1	inactive: 9.61% [at 9.04 µM]	–
Cc1cc(C)c(NC(=O)Cn2cc(S(=O)(=O)Cc3ccccc3F)c3ccccc32)c(C)c1	–	inconclusive [inhibitor, single point]
CC(C)(C)c1cc(CCC(=O)NCC2CCCO2)cc(C(C)(C)C)c1O (configuration not stated)	inactive: -29.3%	–
CCC(=O)Nc1nnc(S(=O)(=O)N(C)c2ccccc2)s1	inactive: -3.12%	–
COc1cccc(-c2nc(-c3ccc4c(c3)-c3ccccc3S4(=O)=O)c(-c3ccccc3)[nH]2)c1OC	–	active: 7.31 µM
CCOC(=O)c1c(C)[nH]c(C)c1C(=O)COC(=O)[C@@H]1CCCN1S(=O)(=O)c1ccc(Cl)cc1	–	active: 14.6 µM
CCOc1cc(/C=C2\C(=O)N(c3cccc(C(F)(F)F)c3)C(=O)c3ccccc32)ccc1O	–	inconclusive [inhibitor, single point]

SMILES	activity change, negative = growth inhibition	Potency
COCCCNC(=O)c1ccccc1SC	inactive: 5.69%	–
COc1ccc(OC)c(CNS(=O)(=O)c2ccc3c(c2)CCCN3C(C)=O)c1	–	inconclusive [inhibitor, single point]
Cc1ccc(C2C=CC(C#N)=CN2Cc2ccccc2)cc1 (configuration not stated)	–	active: 23.1 µM
COc1ccc(NC(=O)Cn2nnc(C(=O)NCCc3ccccc3)c2N)cc1	–	inconclusive [inhibitor, single point]
CSCCC(NC(=O)C1CCC(C)CC1)C(=O)Nc1ccc(NC(C)=O)cc1 (configuration not stated)	inactive: 6.06%	–
Cc1cc(C)cc(S(=O)(=O)N2CCN(c3nc(-c4cccs4)nc4ccccc34)CC2)c1	–	inconclusive [inhibitor, single point]
COc1ccc(S(=O)(=O)NCCN2CCOCC2)cc1Br	–	inconclusive [inhibitor, single point]
Cc1cc(C(=O)C(=O)N(C)C)c(C)n1-c1ccc([N+](=O)[O-])cc1	inactive: -19.7%	–
CC(C)c1ccc(NC(=O)c2cc3sc(Cl)cc3n2C)cc1	–	inconclusive [inhibitor, partial curve]
CCOC(=O)c1c(C)nc2sc3c(=O)n(-c4ccc(C(C)=O)cc4)nnc3c2c1-c1ccc(Cl)cc1	–	inconclusive [inhibitor, single point]
Cc1ccccc1C(=O)c1cccn1CC(=O)NCC(C)c1ccccc1 (configuration not stated)	–	inconclusive [inhibitor, full curve]
CC1CCCN(C(=O)C2CCN(S(=O)(=O)c3cccc4cccnc34)CC2)C1 (configuration not stated)	inconclusive: -30.6% [inhibitor]	–
O=C(Nc1ccccc1)c1cc(C2CCCCN2C(=O)c2cccs2)on1 (configuration not stated)	–	inconclusive [inhibitor, single point]
Cc1nn(-c2ccccc2)c2c1C(c1ccc(F)cc1)C(C#N)=C(N)O2 (configuration not stated)	inactive: -22%	–
O=C(NCCc1ccccc1)c1ccc2c(c1)N(Cc1ccc(F)cc1)C(=O)c1ccccc1S2(=O)=O	–	inconclusive [inhibitor, single point]
O=C(Nc1ccc(S(=O)(=O)N2CCOCC2)cc1)c1cc(S(=O)(=O)N2CCOCC2)ccc1Cl	–	active: 18.4 µM
Cc1ccc(-c2[nH]ncc2CNCc2ccccc2)cc1	–	active: 11.2 µM
CC(=O)c1cc(CN2CCC(N3CCC(C(=O)NC(C)C)CC3)CC2)cs1	–	inconclusive [inhibitor, single point]
CC(C)(C)NC(=O)C(c1ccc(O)cc1)N(C(=O)CCC(=O)Nc1ccccn1)c1ccc(F)cc1 (configuration not stated)	inactive: 0.418%	–
CC1CCc2c(sc3nc(-c4cc5cc(Br)ccc5oc4=O)[nH]c(=O)c23)C1 (configuration not stated)	inactive: -14.9%	–
COc1cccc(N(CC(=O)NCC2CCCO2)C(=O)CCC(=O)Nc2nccs2)c1 (configuration not stated)	inactive: 4.9%	–
Cc1cc(C)cc(NC(=O)N2CCC3(CC2)Oc2ccccc2C(=O)N3Cc2ccccc2F)c1	–	inconclusive [inhibitor, single point]
O=C(NCCCN1CCOCC1)c1ccc2c(c1)N(Cc1ccc(F)cc1)CCS2	–	active: 16.4 µM
